Binding data for one molecule are collected here from publication PMC8222345.

Sequences of proteins named here, by UniProt entry; tags and fusion partners are left off.
UniProt O75838: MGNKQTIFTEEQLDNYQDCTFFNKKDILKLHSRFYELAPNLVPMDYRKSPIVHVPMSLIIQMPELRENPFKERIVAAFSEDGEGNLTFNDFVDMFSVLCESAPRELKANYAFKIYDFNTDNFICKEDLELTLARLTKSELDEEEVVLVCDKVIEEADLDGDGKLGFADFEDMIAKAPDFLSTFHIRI

Results are given in words; binding and its absence hold for the method and conditions named. Tags and fused reporters may be left off the sequences shown.

In this assay the target is GFP-hCIB2 (calcium and integrin binding protein 2) (human) (UniProt O75838). The assay can be described thus: nanoscale pulldown 2.0 (NanoSPD); COS-7 cells transfected with 1 µg each of nanoTRAP (myo10 HMM-GFP nanobody), GFP-tagged bait and prey; co-accumulation of the prey with the bait at filopodia tips in fixed cells, confocal microscopy, prey/bait fluorescence ratio.

B1: FLAG-tagged TSC1 (protein, UniProt Q92574 1-1164)
chain: MAQQANVGELLAMLDSPMLGVRDDVTAVFKENLNSDRGPMLVNTLVDYYLETSSQPALHILTTLQEPHDKHLLDRINEYVGKAATRLSILSLLGHVIRLQPSWKHKLSQAPLLPSLLKCLKMDTDVVVLTTGVLVLITMLPMIPQSGKQHLLDFFDIFGRLSSWCLKKPGHVAEVYLVHLHASVYALFHRLYGMYPCNFVSFLRSHYSMKENLETFEEVVKPMMEHVRIHPELVTGSKDHELDPRRWKRLETHDVVIECAKISLDPTEASYEDGYSVSHQISARFPHRSADVTTSPYADTQNSYGCATSTPYSTSRLMLLNMPGQLPQTLSSPSTRLITEPPQATLWSPSMVCGMTTPPTSPGNVPPDLSHPYSKVFGTTAGGKGTPLGTPATSPPPAPLCHSDDYVHISLPQATVTPPRKEERMDSARPCLHRQHHLLNDRGSEEPPGSKGSVTLSDLPGFLGDLASEEDSIEKDKEEAAISRELSEITTAEAEPVVPRGGFDSPFYRDSLPGSQRKTHSAASSSQGASVNPEPLHSSLDKLGPDTPKQAFTPIDLPCGSADESPAGDRECQTSLETSIFTPSPCKIPPPTRVGFGSGQPPPYDHLFEVALPKTAHHFVIRKTEELLKKAKGNTEEDGVPSTSPMEVLDRLIQQGADAHSKELNKLPLPSKSVDWTHFGGSPPSDEIRTLRDQLLLLHNQLLYERFKRQQHALRNRRLLRKVIKAAALEEHNAAMKDQLKLQEKDIQMWKVSLQKEQARYNQLQEQRDTMVTKLHSQIRQLQHDREEFYNQSQELQTKLEDCRNMIAELRIELKKANNKVCHTELLLSQVSQKLSNSESVQQQMEFLNRQLLVLGEVNELYLEQLQNKHSDTTKEVEMMKAAYRKELEKNRSHVLQQTQRLDTSQKRILELESHLAKKDHLLLEQKKYLEDVKLQARGQLQAAESRYEAQKRITQVFELEILDLYGRLEKDGLLKKLEEEKAEAAEAAEERLDCCNDGCSDSMVGHNEEASGHNGETKTPRPSSARGSSGSRGGGGSSSSSSELSTPEKPPHQRAGPFSSRWETTMGEASASIPTTVGSLPSSKSFLGMKARELFRNKSESQCDEDGMTSSLSESLKTELGKDLGVEAKIPLNLDGPHPSPPTPDSVGQLHIMDYNETHHEHS
With B1, the binding entry was “no binding”.
